Laboratory results as given in patent publication US6410566B1, “Cyclic amine derivatives and their use as drugs” (Teijin Limited, priority 2000, dated 2002).
Some results were stated once for a whole list of compounds, not compound by compound. For at least one compound, name, drawing or mass did not settle the structure.

What follows are compounds tested against T1, binding of human MIP-1α to THP-1 cells (Homo sapiens, UniProt P32246) (assay: Inhibition of MIP-1α binding to THP-1 cells). Conditions: at 2 μM.
T1 construct: endogenous in cells; host or cells: THP-1 (human monocytic leukemia cell line), whole cells
T1 sequence (P32246 1-355): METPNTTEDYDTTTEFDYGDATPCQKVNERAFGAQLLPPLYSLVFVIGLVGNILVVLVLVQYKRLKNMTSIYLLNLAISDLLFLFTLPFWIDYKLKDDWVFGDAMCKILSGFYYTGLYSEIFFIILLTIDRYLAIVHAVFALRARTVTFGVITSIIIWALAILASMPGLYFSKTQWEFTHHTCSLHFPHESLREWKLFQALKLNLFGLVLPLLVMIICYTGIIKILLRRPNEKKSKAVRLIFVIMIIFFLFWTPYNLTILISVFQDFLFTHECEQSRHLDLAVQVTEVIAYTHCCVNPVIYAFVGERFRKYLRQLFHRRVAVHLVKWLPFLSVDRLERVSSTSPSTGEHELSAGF
Method: Measurement of Inhibition of MIP-1α Binding to THP-1 Cells by Test Compounds
Human monocytic leukemia cell line THP-1 was suspended in assay buffer (RPMI-1640 (Gibco-BRL Co.) containing 0.1% BSA and 25 mM HEPES adjusted to pH 7.4) to give a cell suspension of a concentration of 1×10^7 cells/mL. The test compound was diluted in the assay buffer and used as the test compound solution. Iodinated human MIP-1α (DuPont NEN Co.) was diluted in assay buffer to 250 nCi/mL and used as the labeled ligand solution. In a 96 well filter plate (Millipore Co.), 25 μL of test compound solution, 25 μL of labeled ligand solution and 50 μL of cell suspension were aliquoted into each well in this order, stirred (total reaction volume 100 μL), and incubated for one hour at 18° C.
After the reaction, the reaction solution was filtered, and the filter was washed twice with 200 μL of cold PBS (200 μL of cold PBS was added and then filtered). The filter was air-dried and 25 μL of liquid scintillator was added into each well. The radioactivity retained by the cells on the filter were measured using TopCounit (Packard Instrument Co.).
To calculate the ability of test compounds to inhibit binding of human MIP-1α to THP-1 cells, non-specific binding determined by adding 100 ng of unlabeled human MIP-1α (Peprotech Co.) in place of the test compound was subtracted, while the counts with no test compound added was taken as 100%.
Inhibition (%)={1−(A−B)/(C−B)}×100
(A, counts with test compound added; B, counts with 100 ng of unlabeled human MIP-1α added; C, counts with [^125I]-labeled human MIP-1α added).

Structure (SMILES)	inhibition of MIP-1α binding to THP-1 cells
CCOc1cccc(C(=O)N[C@@H](C(=O)NCC2CCN(Cc3ccc(Cl)cc3)CC2)c2ccccc2)c1 [compound 2099]	> 80%

Same assay, conditions: at 10 μM

Structure (SMILES)	inhibition of MIP-1α binding to THP-1 cells
O=C(NCC1CCN(Cc2ccc(Cl)cc2)CC1)C1CCCN1C(=O)c1ccsc1 (stereo not shown) [compound 748]	> 80%
Cc1oc(C(C)(C)C)cc1C(=O)NC(C)C(=O)NCC1CCN(Cc2ccc(Cl)cc2)CC1 (stereo not shown) [compound 611]	20-50%
CC(C)C(NC(=O)c1cc2ccccc2s1)C(=O)NCC1CCN(Cc2ccc(Cl)cc2)CC1 (stereo not shown) [compound 679]	20-50%
O=C(CNC(=O)Cc1cc(C(F)(F)F)cc(C(F)(F)F)c1)NCC1CCN(Cc2ccc(Cl)cc2)CC1 [compound 553]	20-50%
O=C(NC(COCc1ccccc1)C(=O)NCC1CCN(Cc2ccc(Cl)cc2)CC1)c1cccc(OC(F)(F)F)c1 (stereo not shown) [compound 1075]	20-50%
Cc1cc(C(=O)NC(C(=O)NCC2CCN(Cc3ccc(Cl)cc3)CC2)C(C)C)c(C(F)(F)F)o1 (stereo not shown) [compound 668]	> 80%
CN(C)c1cccc2c(S(=O)(=O)NCC(=O)NC3CCN(Cc4ccc(Cl)cc4)C3)cccc12 (stereo not shown) [compound 236]	20-50%
O=C(CCNC(=O)c1ccccc1)NC1CCCN(Cc2ccc(Cl)cc2)C1 (stereo not shown) [compound 359]	20-50%
CC(C)C(NC(=O)c1c[nH]c2ccccc12)C(=O)NCC1CCN(Cc2ccc(Cl)cc2)CC1 (stereo not shown) [compound 658]	20-50%
Cc1oc(-c2ccccc2)cc1C(=O)NC(C)C(=O)NCC1CCN(Cc2ccc(Cl)cc2)CC1 (stereo not shown) [compound 612]	20-50%
Cc1ccc(NC(=O)CC(C)(C)CC(=O)NC2CCN(Cc3ccc(Cl)cc3)C2)cc1 (stereo not shown) [compound 229]	20-50%
CC(NC(=O)c1cccc(OC2CCCC2)c1)C(=O)NCC1CCN(Cc2ccc(Cl)cc2)CC1 (stereo not shown) [compound 1082]	> 80%
CCc1ccc(C(=O)NCC(=O)NCC2CCN(Cc3ccc(Cl)cc3)CC2)cc1 [compound 543]	20-50%
Cc1ccc(C(=O)CCC(=O)NCC2CCN(Cc3ccc(Cl)cc3)CC2)cc1 [compound 844]	20-50%
COCC(NC(=O)c1cc(F)cc(C(F)(F)F)c1)C(=O)NCC1CCN(Cc2ccc(Cl)cc2)CC1 (stereo not shown) [compound 829]	20-50%
O=C(CNC(=O)c1ccc(C(F)(F)F)cc1)NCC1CCN(Cc2ccc(Cl)cc2)CC1 [compound 474]	20-50%
CC(C)C(NC(=O)c1ccc(C(F)(F)F)cc1)C(=O)NCC1CCN(Cc2ccc(Cl)cc2)CC1 (stereo not shown) [compound 643]	20-50%
CC(C)C(NC(=O)c1cc2ccccc2n1C)C(=O)NCC1CCN(Cc2ccc(Cl)cc2)CC1 (stereo not shown) [compound 677]	20-50%
COC(=O)c1ccc(C(=O)NC(C(=O)NCC2CCN(Cc3ccc(Cl)cc3)CC2)C(C)C)cc1 (stereo not shown) [compound 641]	20-50%
NC(=O)CCC(NC(=O)c1ccc([N+](=O)[O-])cc1)C(=O)NCC1CCN(Cc2ccc(Cl)cc2)CC1 (stereo not shown) [compound 820]	20-50%
Cc1ccc(C(=O)NCC(=O)NCC2CCCN2Cc2ccc(Cl)cc2)cc1 (racemic) [compound 334]	20-50%
O=C(CNC(=O)c1cccc(C(F)(F)F)c1)NCC1CCN(Cc2cccc(Oc3ccccc3)c2)CC1 [compound 882]	20-50%
COCC(NC(=O)c1cccc(C(F)(F)F)c1)C(=O)NCC1CCN(Cc2ccc(Cl)cc2)CC1 (stereo not shown) [compound 837]	20-50%
CC(C)C(NC(=O)c1ccc[nH]1)C(=O)NCC1CCN(Cc2ccc(Cl)cc2)CC1 (stereo not shown) [compound 672]	> 80%
C[C@H](NC(=O)c1cc(OCC(F)(F)F)ccc1OCC(F)(F)F)C(=O)NCC1CCN(Cc2ccc(Cl)cc2)CC1 [compound 1028]	20-50%
COc1ccc(NC(=O)CCCC(=O)NC2CCCN(Cc3ccc(Cl)cc3)C2)cc1 (racemic) [compound 376]	20-50%
CC(C)C(NC(=O)c1cccc(N)c1)C(=O)NCC1CCN(Cc2ccc(Cl)cc2)CC1 (stereo not shown) [compound 625]	20-50%

Structure (SMILES)	inhibition of MIP-1α binding to THP-1 cells
O=C(CCC(=O)c1ccc(Cl)cc1)NC1CCN(Cc2ccc(Cl)cc2)C1 (racemic) [compound 222]	20-50%
O=C(CNC(=O)c1cc2cc(Cl)ccc2[nH]1)NCC1CCN(Cc2ccc(Cl)cc2)CC1 [compound 555]	20-50%
O=C(CCNC(=O)c1ccc([N+](=O)[O-])cc1)NC1CCN(Cc2ccc(Cl)cc2)C1 (stereo not shown) [compound 134]	20-50%
O=C(CNC(=O)c1cccc(C(F)(F)F)c1)NCC1CCN(Cc2cccc(Cl)c2)CC1 [compound 911]	20-50%
O=C(CCCC(=O)NC1CCN(Cc2ccc(Cl)cc2)C1)NCc1ccccc1 (stereo not shown) [compound 233]	20-50%
O=C(NCC1CCN(Cc2ccc(Cl)cc2)CC1)C1CCCN1C(=O)c1csc([N+](=O)[O-])c1 (stereo not shown) [compound 741]	20-50%
CC(=O)c1ccc(C(=O)NC(C)C(=O)NCC2CCN(Cc3ccc(Cl)cc3)CC2)cc1 (stereo not shown) [compound 596]	20-50%
O=C(NCC1CCN(Cc2ccc(Cl)cc2)CC1)C1CCCN1C(=O)c1ccc([N+](=O)[O-])cc1 (stereo not shown) [compound 704]	20-50%
O=C(CNC(=O)c1cccc(C(F)(F)F)c1)NCC1CCCN1Cc1ccc(Cl)cc1 (racemic) [compound 336]	20-50%
Cc1occc1C(=O)NC(C(=O)NCC1CCN(Cc2ccc(Cl)cc2)CC1)C(C)C (stereo not shown) [compound 663]	> 80%
Cn1cccc1C(=O)N1CCCC1C(=O)NCC1CCN(Cc2ccc(Cl)cc2)CC1 (stereo not shown) [compound 721]	20-50%
COc1cccc(C(=O)NC(CC(C)C)C(=O)NCC2CCN(Cc3ccc(Cl)cc3)CC2)c1 (stereo not shown) [compound 1000]	> 80%
COC(=O)c1ccc(C(=O)NC(C)C(=O)NCC2CCN(Cc3ccc(Cl)cc3)CC2)cc1 (stereo not shown) [compound 595]	20-50%
O=C(NCC1CCN(Cc2ccc(Cl)cc2)CC1)C1CCCN1C(=O)c1cccc(Br)c1 (stereo not shown) [compound 690]	> 80%
O=C(CNC(=O)c1cc(C(F)(F)F)ccc1C(F)(F)F)NCC1CCN(Cc2ccc(Cl)cc2)CC1 [compound 489]	20-50%
O=C(CCCC(=O)NC1CCCN(Cc2ccc(Cl)cc2)C1)NCc1ccccc1 (racemic) [compound 380]	20-50%
CC(C)(NC(=O)c1cccc([N+](=O)[O-])c1)C(=O)NCC1CCN(Cc2ccc(Cl)cc2)CC1 [compound 780]	20-50%
COCC(NC(=O)c1ccc(C(F)(F)F)cc1)C(=O)NCC1CCN(Cc2ccc(Cl)cc2)CC1 (stereo not shown) [compound 834]	20-50%
CC(NC(=O)c1cccc(C(F)(F)F)c1)C(=O)NCC1CCN(Cc2ccc(Cl)cc2)CC1 (stereo not shown) [compound 617]	> 80%
CC(=O)c1cccc(NC(=O)NCC(=O)NCC2CCN(Cc3ccc(Cl)cc3)CC2)c1 [compound 856]	> 80%
O=C(CNC(=O)c1cccc(F)c1)NCC1CCN(Cc2ccc(Cl)cc2)CC1 [compound 544]	> 80%
COc1ccc(OC)c(C(=O)CCC(=O)NCC2CCN(Cc3ccc(Cl)cc3)CC2)c1 [compound 849]	> 80%
CC(C)C(NC(=O)c1ccc(CO)cc1)C(=O)NCC1CCN(Cc2ccc(Cl)cc2)CC1 (stereo not shown) [compound 646]	20-50%
O=C(NCC1CCN(Cc2ccc(Cl)cc2)CC1)C1CCCN1C(=O)c1cc(C(F)(F)F)ccc1F (stereo not shown) [compound 737]	20-50%
O=C(CNC(=O)c1sccc1Br)NCC1CCN(Cc2ccc(Cl)cc2)CC1 [compound 509]	> 80%
CCOc1cccc(C(=O)NC(C)C(=O)NCC2CCN(Cc3ccc(Cl)cc3)CC2)c1 (stereo not shown) [compound 564]	> 80%
CC(C)CC(NC(=O)c1cc(OCC(F)(F)F)ccc1OCC(F)(F)F)C(=O)NCC1CCN(Cc2ccc(Cl)cc2)CC1 (stereo not shown) [compound 1056]	20-50%
